The campaign covered roughly 150,000 compounds. About 540 (0.36%) showed an effect of 50% or more. The list shows a part of the results.
Each molecule was assayed on Plasmodium falciparum (assay: Primary screen in NF54 nanoGlo assay, in single point, at 2uM, 72h; a lower Z score goes with more inhibition). Settings: timepoint 72 hour.
Assay type: functional, Erythrocyte

Point of comparison: `Cn1cc([C@]2(C)NC(=O)N(Cc3ccsc3)C2=O)cn1`, “% Inhibition” value -13%. Against it:
- Cc1cnc(Cn2ccnc2[C@H]2CCOC(C)(C)C2)cn1 — higher, -3%
- O=C(C1CCOCC1)N1CCC[C@H]1c1nc(C2CCOCC2)no1 — lower, -16%
- Cc1ccnc(O)c1C(=O)N1CCc2c(CN3CCCC3)cccc21 — higher, -5%
- O=C(O)c1ccc(CN2CC[C@H](c3ccccc3)[C@H](CO)C2)cc1Cl — higher, -11%
- Cc1ccc2nc(COc3ccc(C(=O)NCc4ccco4)cc3)cn2c1 — lower, -15%
- CC1OCCC1C(=O)N(Cc1ccccn1)c1ccc(F)cc1F (stereo unspecified) — higher, -6%
- O=C(C[C@H](CCc1ccccc1)c1c[nH]c2ccccc12)NCc1ccccc1 — higher, 0%
- COc1ccc(CN(C(=O)c2oc3ccccc3c2C)[C@H]2CCS(=O)(=O)C2)cc1OC — higher, -5%
- CCc1nc(Cn2nc3ccccn3c2=O)no1 — the same, -13%
- CC(=O)N1CC[C@H]2[C@H](CCCN2Cc2ccccc2-c2ccco2)C1 — higher, 2%
- Cc1cccc(C[C@H](C)Nc2nc(C)cnc2C)n1 — higher, 1%
- COc1ccc(C)cc1NC(=O)N1CCC2(CC1)CC(=O)N(CC(C)C)C2 — higher, 11%
- CCS(=O)(=O)c1c(S(=O)(=O)CC)c2c3ccccc3ccn2c1C(=O)c1ccc(Cl)cc1 — higher, -4%
- Cc1cc([C@]2(C)NC(=O)N(Cc3cccc(C(N)=O)c3)C2=O)c(C)o1 — higher, -5%
- Cc1c(Cl)cc(C(=O)N(C)C[C@H]2COCCO2)cc1Cl — higher, 9%
- Cn1cccc1C(=O)NC1CC1c1ccc(F)cc1F (stereo unspecified) — higher, -3%
- Cc1ccc(OCCOCCN(C)C)cc1 — higher, -2%
- O=C(c1csc(C(F)(F)F)c1)N1CCn2c(n[nH]c2=O)C1 — higher, -2%
- O=C(c1ccc(Cl)cc1)N(CC(=O)N1c2ccccc2-n2cccc2[C@H]1c1cccc(Cl)c1)C1CC1 — higher, -6%
- CCC1CCCCN1CCN1C(=O)[C@@H]2C(C(=O)Nc3cccc(C)c3)[C@@H]3C=C[C@]2(O3)C1C(=O)NC1CCCC(C)C1C (stereo partly specified) — higher, 4%
- Cc1n[nH]c(N2CCN(C(=O)CC3CC4CCC3C4)CC2)n1 (stereo unspecified) — higher, 3%
- Cc1ccc(-n2ccnc2)c(C(=O)NCc2cnc3n2CCCC3)c1 — higher, 2%

Point of comparison: `CCc1nc(Cn2nc3ccccn3c2=O)no1`, Z score 1.64. Against it:
- Cc1cnc(Cn2ccnc2[C@H]2CCOC(C)(C)C2)cn1 — lower, 0.53
- O=C(C1CCOCC1)N1CCC[C@H]1c1nc(C2CCOCC2)no1 — higher, 2.11
- Cc1ccnc(O)c1C(=O)N1CCc2c(CN3CCCC3)cccc21 — lower, 0.65
- O=C(O)c1ccc(CN2CC[C@H](c3ccccc3)[C@H](CO)C2)cc1Cl — higher, 1.65
- Cc1ccc2nc(COc3ccc(C(=O)NCc4ccco4)cc3)cn2c1 — lower, 1.24
- CC1OCCC1C(=O)N(Cc1ccccn1)c1ccc(F)cc1F (stereo unspecified) — lower, 0.72
- O=C(C[C@H](CCc1ccccc1)c1c[nH]c2ccccc12)NCc1ccccc1 — lower, -0.03
- COc1ccc(CN(C(=O)c2oc3ccccc3c2C)[C@H]2CCS(=O)(=O)C2)cc1OC — lower, 0.47
- CC(=O)N1CC[C@H]2[C@H](CCCN2Cc2ccccc2-c2ccco2)C1 — lower, -0.29
- Cc1cccc(C[C@H](C)Nc2nc(C)cnc2C)n1 — lower, -0.08
- COc1ccc(C)cc1NC(=O)N1CCC2(CC1)CC(=O)N(CC(C)C)C2 — lower, -1.61
- Cn1cc([C@]2(C)NC(=O)N(Cc3ccsc3)C2=O)cn1 — higher, 1.75
- CCS(=O)(=O)c1c(S(=O)(=O)CC)c2c3ccccc3ccn2c1C(=O)c1ccc(Cl)cc1 — lower, 0.57
- Cc1cc([C@]2(C)NC(=O)N(Cc3cccc(C(N)=O)c3)C2=O)c(C)o1 — lower, 0.83
- Cc1c(Cl)cc(C(=O)N(C)C[C@H]2COCCO2)cc1Cl — lower, -1.63
- Cn1cccc1C(=O)NC1CC1c1ccc(F)cc1F (stereo unspecified) — lower, 0.53
- Cc1ccc(OCCOCCN(C)C)cc1 — lower, 0.26
- O=C(c1csc(C(F)(F)F)c1)N1CCn2c(n[nH]c2=O)C1 — lower, 0.28
- O=C(c1ccc(Cl)cc1)N(CC(=O)N1c2ccccc2-n2cccc2[C@H]1c1cccc(Cl)c1)C1CC1 — lower, 1.2
- CCC1CCCCN1CCN1C(=O)[C@@H]2C(C(=O)Nc3cccc(C)c3)[C@@H]3C=C[C@]2(O3)C1C(=O)NC1CCCC(C)C1C (stereo partly specified) — lower, -0.61
- Cc1n[nH]c(N2CCN(C(=O)CC3CC4CCC3C4)CC2)n1 (stereo unspecified) — lower, -0.63
- Cc1ccc(-n2ccnc2)c(C(=O)NCc2cnc3n2CCCC3)c1 — lower, -0.34

— ChEMBL document CHEMBL4888484, “Replenishing the malaria drug discovery pipeline: Screening and hit evaluation of the MMV Hit Generation Library 1 (HGL1) against asexual blood stage Plasmodium falciparum ,using a nano luciferase reporter read-out” (2022)
